For assay [1], the target named is T1, membrane-type IL-6R on cells (U266B1, TF-1, Hep3B) (UniProt P08887 20-468, limits assumed).
T1 sequence (looked up): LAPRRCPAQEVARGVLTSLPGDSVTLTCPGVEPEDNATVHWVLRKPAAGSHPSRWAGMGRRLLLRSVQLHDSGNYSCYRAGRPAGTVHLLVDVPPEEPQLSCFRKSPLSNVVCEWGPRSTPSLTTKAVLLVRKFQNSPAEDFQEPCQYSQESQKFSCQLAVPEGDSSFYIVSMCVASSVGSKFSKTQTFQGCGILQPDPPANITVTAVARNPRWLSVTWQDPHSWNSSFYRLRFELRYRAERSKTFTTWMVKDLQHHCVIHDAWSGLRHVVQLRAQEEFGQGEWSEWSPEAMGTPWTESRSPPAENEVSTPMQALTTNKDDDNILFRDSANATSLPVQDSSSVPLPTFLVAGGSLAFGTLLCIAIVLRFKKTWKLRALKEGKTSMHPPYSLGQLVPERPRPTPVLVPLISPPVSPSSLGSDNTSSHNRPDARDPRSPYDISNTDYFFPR
Nature of the assay: cell-based or functional assay.

Assay [2] concerns the target T2, hIL-6R.BP15 (human interleukin-6 receptor with BP15 tag, biotinylated) (human, UniProt P08887 20-365, site-directed biotinylation on the BP15 tag).
T2 sequence: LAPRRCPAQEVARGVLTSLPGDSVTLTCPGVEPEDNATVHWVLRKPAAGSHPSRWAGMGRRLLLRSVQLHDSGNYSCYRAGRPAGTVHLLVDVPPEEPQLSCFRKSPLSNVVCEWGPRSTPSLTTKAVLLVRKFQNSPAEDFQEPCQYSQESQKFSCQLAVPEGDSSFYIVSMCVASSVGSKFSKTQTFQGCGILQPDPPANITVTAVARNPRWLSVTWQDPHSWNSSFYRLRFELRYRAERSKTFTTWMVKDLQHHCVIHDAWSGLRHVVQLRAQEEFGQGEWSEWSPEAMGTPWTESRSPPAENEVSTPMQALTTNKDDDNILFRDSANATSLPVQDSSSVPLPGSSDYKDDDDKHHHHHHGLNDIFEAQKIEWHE
The assay is described as follows: blocking ELISA: coated gp130, IL-6.his and IL-6R.BP15 (0.06 ug/ml) with serially diluted antibody, HRP-streptavidin, OD450; blocked: binding of the IL-6/IL-6R complex to gp130; unit from the abscissa. The protocol: (§1) The complex of IL-6 and IL-6R can bind to GP130. The assay will evaluate if the selected antibodies were able to block the formation of IL-6/IL-6R/gp130 complex by binding to IL-6R. The plates were coated with 1 μg/ml gp130 (diluted in PBS) at 4° C. overnight. The coating solution was discarded, and plates were blocked with 5% skim milk in PBS at 37° C. for 2-3h. After blocking, the plates were washed 3 times with washing buffer PBST (0.1% Tween-20 in PBS).
(§2) IL-6.his and IL-6R.BP15 were diluted with 1% BSA in PBS to a concentration of 0.06 μg/ml. Starting at 50 ug/ml, IL-6R antibodies were 1:3 serially diluted in dilution buffer and Both testing antibody samples and IL-6/IL-6R complex were added to the plate followed by lh incubation at 37° C. After that, the plates were washed for 3 times with washing buffer PBST (0.1% Tween-20 in PBS).
(§3) 1:2000 diluted Secondary antibody HRP streptavidin (Jackson, 016-030-084) was added to the plate followed by 1 h incubation at 37° C.After incubation and wash,. TMB was used for development. OD₄₅₀ values were read.
For orientation: An ELISA detects its analyte on a solid surface through an enzyme-linked reagent.

The target of assay [3] is T2, hIL-6R.BP15 (human interleukin-6 …). Described as above. As to the method:
as §1, §2, §3
The source holds these as a separate data set.

The target is the same in assay [4]. The assay is described as follows: blocking ELISA: coated IL-6.Fc, 1 ng/ul biotinylated IL-6R.BP15 with serially diluted antibody, HRP-streptavidin, OD450 falls with concentration; blocked ligand IL-6.Fc; sheet heads the row EC50; unit from the abscissa. The protocol: The formation of IL-6R/IL-6 complex can be blocked by the binding of IL-6R antibody to IL-6R, indicating the downstream cell signaling could be blocked by preventing IL-6/IL-6Rcomplex formationon the cell membrane. All of the expressed the purified antibodies were tested for their abilities to block the binding between IL-6 and IL-6R by ELISA. The procedures was descripted as follows:
The plates were coated with100 μl of 2 ng/μl IL-6.Fc at 4° C. overnight, and blocked with 2% skim milk at 37° C. for 1 hour. The plates were then washed, incubated with 100 μl of serial diluted testing samples with and 1 ng/μl IL-6R.BP15. After 1 hourincubation at 37° C,. the plates were washed andHRP-streptavidin (Jackson, 016-030-084) diluted at 1:4000 was added to the plate followed by incubation. After wash and 100 μl TMB develoment at room temperature for 5 min. 100 μl of 1M H₂SO₄ was added to terminate the reaction. The OD₄₅₀ values were read.

Assay [5] concerns the target T1, membrane-type IL-6R on cells (U266B1, …). The assay is described as follows: cell-based or functional assay. The source holds these as a separate data set.
For assay [6], the target named is T3, hIL-6R.His (human interleukin-6 receptor with His tag) (human, UniProt P08887 20-365).
T3 construct: Soluble recombinant antigen expressed in 293E cells; The entry includes the His tag
T3 sequence: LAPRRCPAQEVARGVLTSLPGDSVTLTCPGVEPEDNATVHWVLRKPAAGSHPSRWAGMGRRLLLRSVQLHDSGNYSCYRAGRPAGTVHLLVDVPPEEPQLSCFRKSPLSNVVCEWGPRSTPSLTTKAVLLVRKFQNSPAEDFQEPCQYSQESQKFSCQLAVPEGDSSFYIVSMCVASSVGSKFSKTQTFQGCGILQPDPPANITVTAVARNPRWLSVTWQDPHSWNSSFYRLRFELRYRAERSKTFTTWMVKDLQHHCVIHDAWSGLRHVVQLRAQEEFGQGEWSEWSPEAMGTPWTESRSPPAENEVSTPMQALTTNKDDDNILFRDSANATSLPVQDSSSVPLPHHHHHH
The assay is described as follows: SPR (Biacore T200), antibody captured by anti-human capture antibody, hIL-6R.his as analyte, 1:1 Langmuir. An excerpt:
Human anti-capture antibodies were covalently coupled onto Biosensor chip CM5 (Cat.# BR-1000-12, GE) in a Biacore instrument (Biacore T200, GE) with Human Anti-Capture Kit (Cat. #BR-1008-39, GE) according to manufacturer's protocol, thereby certain amounts of antibodies to be tested were captured. Antigens (hIL-6R.his and cIL-6R.FH) at a series of concentration gradients were then flowed through the surface of the chip . The reaction signals were detected in real time using Biacore instrument (Biacore T200, GE) to obtain binding and dissociation curves.
After each cycle of dissociation, the biochips were washed and regenerated with the regeneration solution provided in the Human Anti-Capture Kit. The amino coupling kit used in the experiment was purchased from GE (Cat. #BR-1000-50, GE) and the buffer was HBS-EP+10×buffer solution (Cat.#BR-1006-69, GE), diluted to 1×(pH 7.4) with D.I. water.
The experimental data were fitted with BlAevaluation version 4.1 and GE software (1:1) Langmuir model to obtain the affinity values.

Read-outs that look alike come from different tables or passages of the source.

B1: 20A11-Fc fusion protein (Fc fusion)
chain: EVQLVESGGGLVQPGGSLRLSCAASGSVFKINVMAWYRQAPGKGRELVAGIISGGSTSYADSVKGRFTISRDNAKNTLYLQMNSLRPEDTAVYYCAFITTESDYDLGRRYWGQGTLVTVSS[here human IgG1 Fc with changes without letters]
notes: Positive control antibody
The term IC50 denotes the concentration at which inhibition is half-maximal. A lower IC50 goes with inhibition by little substance. Usually EC50 stands for the midpoint of the concentration-response curve. High values mean weaker potency, low ones greater potency. For the molecule B1, in assay [1], the “EC50, blocking effect on IL-6-stimulated TF-1 proliferation” value stood at 0.354 nM. Also, the values for the IC50 in assay [2] and in assay [3] were 0.0263 µg/mL and 0.0304 µg/mL, respectively. This molecule displayed an EC50 in assay [4] of 0.131 µg/mL.

B2: 1764-mu3 VHH-hFc fusion protein (Fc fusion)
chain: EVQLVESGGGLVQPGGSLRLSCEASGNIFKINVMGWYRQAPGKQREWVAAIISGGSTNYADSVKGRFTISRDNAKNTVYLQMNSLRPEDTAVYYCNAILTYNDYDLGSDYWGQGTLVTVSS[here human IgG1 Fc with changes without letters]
notes: also called variant 3 (A14P, K86R, Q116L)
Broadly, the Kd is the concentration at which binding is half-saturated. A higher Kd goes with a looser complex. Usually koff stands for the rate constant with which the complex falls apart. High values mean fast dissociation, low ones slow dissociation. As usually defined, the kon is the second-order rate constant of association. Low readings indicate slow association, high ones fast association. For B2, in assay [1], the “EC50, blocking effect on IL-6-stimulated TF-1 proliferation” value was 0.337 nM. The IC50 in assay [2] came to 0.0366 µg/mL. In assay [5], the “Relative expression level of hepcidin mRNA (fold) in Hep3B cells with 5 nM antibody and 10 ng/ml IL-6 (blank 1; IL-6 only 2.783)” value worked out at 1.15 fold. In assay [6], the Kd is 0.127 nM, the koff worked out at 0.000154 s⁻¹ and the kon stood at 1.21e+06 M⁻¹ s⁻¹.

(Values after patent US20200369774A1 (JIANGSU HENGRUI MEDICINE, published 2020).)
